Among the test systems are SW-620 colon; RPMI-8226 leukemia; HL-60(TB) leukemia; U251 CNS; M14 melanoma; NCI-H460 lung.
Assay in all cases: DTP human tumour cell line panel, 48 h

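How tested: cells in 96-well plates exposed to compound for 48 hours at five concentrations. TGI marks complete inhibition of growth.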 Certain results were filed several times, with different values. This list holds those alone. There may be further records. For part of these data: The tests behind the records often covered other concentration ranges, which the source does not state; some values may only mark the edge of a range. For part of these data: Values given together are repeated measurements (runs, samples, wells, individuals or studies). Records carry a tag for their origin. The letters are not those of the source and start again with each entry. Bounds are passed on as bounds.

One may read the TGI as the concentration at which net growth stops. Low values mean greater sensitivity of the cells, high ones lower sensitivity of the cells. In the case of `CN(CCCNc1ccc2ncn3c4ccccc4c(=O)c1c23)CCCN1C(=O)c2cccc3cc([N+](=O)[O-])cc(c23)C1=O`, the TGI is 108 nM and > 100 µM in the test with SW-620 colon; 359 nM and > 100 µM with RPMI-8226 leukemia; 281 nM and > 100 µM in the test on HL-60(TB) leukemia.
Regarding `Cc1cc(C2CCCCC2)n(O)c(=O)c1`, the TGI is 8.04 µM [sample A] and > 100 µM [sample B] in the test with U251 CNS; 45.6 µM [sample A] and 4.33 µM [sample B] in the test with M14 melanoma; > 100 µM [sample A] and 3.77 µM [sample B] with NCI-H460 lung.

The record behind these values is PubChem BioAssay (NCI).
